Results on 101 compounds are retold here after PMC6919601, “Identification of Plasmodium dipeptidyl aminopeptidase allosteric inhibitors by high throughput screening” (PLoS ONE, 2019).

Several values for one entry are separate records, joined by “and”; a condition that tells them apart may be missing. Equal entries are not always repeated. Among all 110,000 compounds or so, about 230 (0.21%) showed an effect of 50% or more. This is one part of the list.
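Further: 30 min substrate incubation versus DMSO and 10 µM JCP410 controls.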

In this experiment the target is DPAP1 (Plasmodium falciparum, UniProt Q8IIJ9). The experiment can be described thus: primary screen, percent inhibition; read by cleavage of a fluorogenic dipeptide substrate; higher = more effect of the substance. The arrangement: species or system P. falciparum D10 trophozoite lysates; single well.
Chain of DPAP1 (Q8IIJ9 whole entry, looked up): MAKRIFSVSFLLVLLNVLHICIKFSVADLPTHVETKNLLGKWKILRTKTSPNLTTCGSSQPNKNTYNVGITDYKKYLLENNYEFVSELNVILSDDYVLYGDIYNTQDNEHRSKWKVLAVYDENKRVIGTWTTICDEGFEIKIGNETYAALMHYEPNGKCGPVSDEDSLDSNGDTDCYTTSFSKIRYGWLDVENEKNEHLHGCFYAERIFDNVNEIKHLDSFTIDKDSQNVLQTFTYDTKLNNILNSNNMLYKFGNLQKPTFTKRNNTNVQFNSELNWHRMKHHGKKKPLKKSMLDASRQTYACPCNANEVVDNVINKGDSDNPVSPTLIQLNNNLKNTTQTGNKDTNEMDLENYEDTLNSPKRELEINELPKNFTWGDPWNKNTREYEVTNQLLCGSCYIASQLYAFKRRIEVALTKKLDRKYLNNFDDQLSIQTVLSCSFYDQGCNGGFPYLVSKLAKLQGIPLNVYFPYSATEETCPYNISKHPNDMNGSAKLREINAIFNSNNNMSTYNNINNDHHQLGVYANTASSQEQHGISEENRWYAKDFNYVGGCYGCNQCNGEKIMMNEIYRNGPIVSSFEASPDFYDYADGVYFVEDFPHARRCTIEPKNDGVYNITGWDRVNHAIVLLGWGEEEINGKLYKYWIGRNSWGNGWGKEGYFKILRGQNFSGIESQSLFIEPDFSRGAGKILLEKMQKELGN
Turning to `COc1ccc(-c2nc3cc(C)ccn3c2NC(=O)CCc2ccccc2)cc1OC`, the “% Inhibition @ 10 uM” value was 1.5%.
For the compound `COc1cc(CN2CCN(c3ccccc3)CC2)cc(OC)c1`, the “% Inhibition @ 10 uM” value is given as -1.22%.
For `CCOc1ccc(C(=O)Nc2ccccc2C(F)(F)F)cc1`, the “% Inhibition @ 10 uM” value is listed as -3.39%.
For `O=C1CC2CS(=O)(=O)CC2N1c1ccc(OC(F)(F)Cl)cc1` (centres unmarked) the value was -4.91%; for `CC1CCN(S(=O)(=O)c2ccc(NC(=O)c3ccccc3Cl)cc2)CC1`, -3.01%; for `O=C(O)Cc1c[nH]c2ccc(O)cc12`, -3.58%.
Consider `Cc1cc(=O)sc2c1c1ccccc1n2C`, for which the “% Inhibition @ 10 uM” value is -0.545%.
As for `Cc1nc2c(-c3ccccc3)c(C)nn2c(C)c1CCC(=O)Nc1ccccn1`, the “% Inhibition @ 10 uM” value is -4.1%.
For `Cc1nn(C(=O)CCCC(=O)NCC2CCCO2)c2ccccc12` (centres unmarked) the value was 0.596%; for `COc1ccc(CCn2c(SCC(=O)N3CCCC(C)C3)nc3ccsc3c2=O)cc1OC` (centres unmarked), -1.8%; for `N#CC1=C(N)Oc2c(oc(CO)cc2=O)C1c1ccccc1C(F)(F)F` (centres unmarked), 4.97%.
Take `CCOc1ccc(/C=C(\C#N)c2nc(O)c3ccccc3n2)cc1`: the “% Inhibition @ 10 uM” value is given as -3.09%.
Take `O=C(CN1CCN(Cc2ccc(F)cc2Cl)S1(=O)=O)NCc1ccco1`: the “% Inhibition @ 10 uM” value is -4.18%.
`CCOC(=O)c1cnc2ccccc2c1O`: the “% Inhibition @ 10 uM” value is on record as -0.216%.
As for `Cn1c(=O)c2ncn(CC(=O)Nc3ccc(-c4nc5ccccc5s4)cc3)c2n(C)c1=O`, the “% Inhibition @ 10 uM” value was found to be 20.6%.
Turning to `CCOC(=O)c1ccc(OCc2c(C)noc2C)cc1`, the “% Inhibition @ 10 uM” value is reported as -5.28%.
For `CCC(Sc1nnnn1-c1ccccc1)C(=O)NC1=NN=C(c2ccc(C)cc2)CS1` (centres unmarked), the “% Inhibition @ 10 uM” value amounted to 1.12%.
Regarding `CCN(CC)C(=O)N1CCC/C1=N\c1ccc(Cl)cc1`, the “% Inhibition @ 10 uM” value is on record as -0.99%.
In the case of `CCNC(=O)c1c(NC(=O)c2cccs2)sc2c1CCC(C(C)(C)C)C2` (centres unmarked), the “% Inhibition @ 10 uM” value is -4.52%.
For `O=C(CSc1nc2ccccc2[nH]1)c1ccc(Cl)cc1`, the “% Inhibition @ 10 uM” value is 4.89%.
For the compound `N#Cc1cc(Cc2ccc(N)c(C#N)c2)ccc1N`, the “% Inhibition @ 10 uM” value was found to be 4.69%.
Turning to `CCOc1c(Cl)cc(/C=C2/C(=N)N3OC(C)=CC3=NC2=O)cc1OC`, the “% Inhibition @ 10 uM” value is -5.1%.
Turning to `CCCCN(C)Cc1cccc([N+](=O)[O-])c1`, the “% Inhibition @ 10 uM” value is on record as -1.78%.
As to `O=C(c1ccc(F)cc1)N1CCN(C/C=C/c2ccccc2)CC1`, the “% Inhibition @ 10 uM” value is listed as 0.847%.
Consider `O=C(CCCCN1C(=O)c2ccccc2C1=O)Nc1nc(-c2ccccc2)cs1`, for which the “% Inhibition @ 10 uM” value was determined as 3.05%.
As for `CO/C(O)=C1\C(C)=NC2=C(C(=O)CC(C)(C)C2)C1c1cccc(Cl)c1Cl` (centres unmarked), the “% Inhibition @ 10 uM” value is given as 3.05%.
On to `CN1CCN(C(=O)CN(Cc2ccccc2)S(=O)(=O)c2ccc(Cl)cc2)CC1`, for which the “% Inhibition @ 10 uM” value is -9.26%.
Turning to `CCCOc1ccc(-c2csc3ncn(Cc4ccc(C(=O)O)cc4)c(=O)c23)cc1`, the “% Inhibition @ 10 uM” value is 6.68%.
`Cc1nn(C)c(C)c1CNC(=O)c1cnn2c1NC(c1ccccc1)CC2C(F)(F)F` (centres unmarked): the “% Inhibition @ 10 uM” value is recorded as -5.85%.
As for `COc1cccc(-c2nc(CS(=O)(=O)CC(=O)NC(C)c3ccccc3)c(C)o2)c1` (centres unmarked), the “% Inhibition @ 10 uM” value was -3.7%.
The figure for `Cc1ccc(NC(=O)c2ccccc2Br)cc1O` is 2.42%; for `COC(=O)c1nnn(-c2cc(C)cc(C)c2)c1C(=O)OC` it is -1.58%; for `N#Cc1cnc(O)c(C#N)c1Nc1ccccc1` it is 4.42%.
For `CCN1C(=O)CC(N2CCC(c3nc4ccccc4[nH]3)CC2)C1=O` (centres unmarked) the value was 4.61%; for `CCc1ccc(S(=O)(=O)N2CC(=O)Nc3ccccc32)cc1`, -3.01%.
For `Cc1ccc(S(=O)(=O)Cc2ccc(C(=O)NCCc3ccccc3)o2)cc1`, the “% Inhibition @ 10 uM” value was found to be 2.14%.
Take `CC(C)Oc1ccc(-c2nc3s/c(=C\c4ccccc4)c(=O)n3n2)cc1`: the “% Inhibition @ 10 uM” value is -1.25%.
`CCOc1ccccc1C1CC(=O)NC2=C1C(=O)CC(c1ccc(F)cc1)C2` (centres unmarked): the “% Inhibition @ 10 uM” value was found to be 2.54%.
The figure for `Fc1ccccc1OCCCn1ccnc1` is 3.48%; for `CC(C)(C)C(=O)Nc1sc2c(c1C(=O)O)CCCC2` it is 2.86%.
The figure for `NS(=O)(=O)c1ccc(NC(=O)c2ccc(N3C(=O)c4ccccc4C3=O)cc2)cc1` is 1.96%; for `COc1ccc(OCC(O)COc2ccc(OC)cc2)cc1` it is 0.408%; for `CCOC(=O)N1CCN(C(=O)/C(=C/c2ccccc2Cl)c2ccccc2)CC1` it is 0.408%.
For the compound `N#Cc1c(N)nc2c(c1-c1ccc([N+](=O)[O-])cc1)CCC2`, the “% Inhibition @ 10 uM” value is reported as 4.51%.
`COc1ccc(C(=O)Nc2ccccc2C#N)cc1OC`: the “% Inhibition @ 10 uM” value is given as 2.33%.
`CSc1nc2sc3c(c2c(=O)n1-c1ccccc1)CCN(C)C3`: the “% Inhibition @ 10 uM” value is reported as -1.66%.
As to `CC(C)OCCCNC(=O)Cc1c(C(=O)O)[nH]c2ccccc12`, the “% Inhibition @ 10 uM” value is -3.48%.
As for `CCOC(=O)c1cc2c(=O)n3ccccc3nc2n(CCOC)/c1=N\C(=O)C(CC)c1ccccc1` (centres unmarked), the “% Inhibition @ 10 uM” value is given as -3.78%.
Regarding `CCCc1nnc2sc(NC(=O)CC)nn12`, the “% Inhibition @ 10 uM” value is listed as -3.42%.
Take `Cc1ccccc1NC(=O)CN(c1cccc2ccccc12)S(C)(=O)=O`: the “% Inhibition @ 10 uM” value is recorded as 5.29%.
`Cc1ccc(Cn2c(=O)c(C#N)cc3c(=O)n4ccccc4nc32)cc1`: the “% Inhibition @ 10 uM” value is listed as 1.12%.
The figure for `CCOc1ccc(C2C(C(=O)OC)=CN(C)C=C2C(=O)OC)cc1OC` is -1.48%; for `CS(=O)(=O)N(CC(=O)Nc1cc(Cl)ccc1Cl)C1CCCCC1` it is -1.51%.
For `CC(NC(=S)c1ccncc1)c1ccccc1` (centres unmarked), the “% Inhibition @ 10 uM” value is -0.744%.
The figure for `CCCCN1C(=O)C(NC(=O)c2ccccc2OC)(C(F)(F)F)C(C(=O)OC)=C1C` (centres unmarked) is -4.78%; for `CCNC(=O)C1CCCc2c1[nH]c1ccc(Cl)cc21` (centres unmarked) it is 0.345%.
For `Cc1ccc(NC(=O)C2CC(=O)N(c3ccc(OCc4ccccc4)cc3)C2)cc1C` (centres unmarked) the value was -8.29%; for `CCOC(=O)c1cc(C)sc1NC(=O)c1ccc(C)cc1`, -5.9%.
The figure for `CCC(C)c1ccccc1OCC(=O)Nc1ccc(C(C)=O)cc1` (centres unmarked) is 6.69%; for `Nc1nnc(-c2cc(-c3ccc(Cl)cc3)on2)o1` it is -5.41%.
In the case of `c1ccc2sc(CCCCc3nc4ccccc4s3)nc2c1`, the “% Inhibition @ 10 uM” value was -11.6%.
On to `COc1ccc(Br)cc1CNC(=O)CCC(=O)N1Cc2ccccc2Oc2ncccc21`, for which the “% Inhibition @ 10 uM” value is on record as 5.98%.
On to `COc1ccc2nc(NC(=O)CCN3C(=O)c4ccccc4C3=O)sc2c1`, for which the “% Inhibition @ 10 uM” value is given as 1.82%.
Take `O=C(CCCN1C(=O)C(c2ccccc2)Oc2cccnc21)NC1CCCCCC1` (centres unmarked): the “% Inhibition @ 10 uM” value was -1.81%.
For the compound `COc1ccc(NC(=O)c2c(C(=O)O)cccc2[N+](=O)[O-])cc1`, the “% Inhibition @ 10 uM” value is -1.29%.
Turning to `CC(C)Cn1cc(C(=O)NCCCN2CCCC2=O)c2c3ccccc3n(C)c2c1=O`, the “% Inhibition @ 10 uM” value was -6.45%.
The figure for `Cc1nc2c(N)c(Cl)c(Cl)c(N)c2[nH]1` is 1.7%.
Take `O=[N+]([O-])c1ccc(S(=O)(=O)N2CCN(c3ccccc3)CC2)cc1`: the “% Inhibition @ 10 uM” value is -5.32%.
As to `O=C(NCc1ccc(F)cc1)N1CCN2CCCCC2C1` (centres unmarked), the “% Inhibition @ 10 uM” value is on record as -6.33%.
Regarding `COc1ccc(/C=C2\C(=O)c3ccccc3S2(=O)=O)cc1`, the “% Inhibition @ 10 uM” value is recorded as -1.06%.
`FC(F)(F)c1nc2ccccc2c2nc3ccccc3n12`: the “% Inhibition @ 10 uM” value was -1.47%.
Regarding `C=CCNc1nc(-c2sc(N)nc2C)cs1`, the “% Inhibition @ 10 uM” value is 5.31%.
`COc1cc(NS(=O)(=O)c2ccc(Cl)cc2)c(OC)cc1Cl`: the “% Inhibition @ 10 uM” value worked out at 3.16%.
On to `O=C(NCCc1ccccc1Cl)C1CC(=O)N(C2CCCCC2)C1` (centres unmarked), for which the “% Inhibition @ 10 uM” value was -3.14%.
The figure for `COc1ccccc1C(=O)Nc1cccc(C(=O)O)c1C` is -3.41%; for `CCO/C=C1/C(=O)N(c2ccc(C)cc2)C(=O)c2cc(OC)ccc21` it is 1.34%.
As to `CCN1C(=O)NC2C1N(C)C(=O)N2C` (centres unmarked), the “% Inhibition @ 10 uM” value is -3.03%.
In the case of `O=C(Cc1ccccc1)Nc1ccc(C(=O)NCC2CCCO2)cc1` (centres unmarked), the “% Inhibition @ 10 uM” value was -3.33%.
As for `Cc1cc(Oc2nc3ccccn3c(=O)c2/C=C(\C#N)c2nc3ccccc3[nH]2)ccc1Cl`, the “% Inhibition @ 10 uM” value amounted to 92.2%.
For `CCOC(=O)N1CCN(Cc2ccc(F)c(Br)c2)CC1` the value was 1.08%; for `O=C1C(Nc2ccccc2)=C(NS(=O)(=O)c2ccccc2)C(=O)c2ccccc21`, -4.24%.
Turning to `Cc1ccc(OCCCn2c(CO)nc3ccccc32)cc1`, the “% Inhibition @ 10 uM” value was determined as 1.61%.
In the case of `COc1cccc(-c2cc(C(F)(F)F)n3ncc(C(=O)N(C)CCc4ccccn4)c3n2)c1`, the “% Inhibition @ 10 uM” value is -4.62%.
Take `COc1ccc(OCC(=O)Nc2ccc(Br)c(Cl)c2)cc1`: the “% Inhibition @ 10 uM” value was -2.99%.
For `CCOC(=O)N1CCN(C2CCN(C)CC2)CC1` the value was 3.19%; for `CN1C(=O)c2ccccc2C(C(=O)NCc2ccccc2)C1c1cccs1` (centres unmarked), 9.29%; for `Cc1ccccc1CN1CCCCC1CO` (centres unmarked), 1.91%.
For `CNS(=O)(=O)c1cn(CC(=O)N2CCc3ccccc3C2)cc1S(=O)(=O)NC` the value was 1.23%.
As for `CCC(Oc1ccc2c(c1)C(=O)CC(C)(C)O2)C(=O)NCCN1CCCCCC1` (centres unmarked), the “% Inhibition @ 10 uM” value is -1.34%.
The figure for `COCC1=Nc2ncnn2C(c2ccco2)/C1=C(/O)OC` (centres unmarked) is 0.627%.
As for `Cc1cc2ccccc2c(=O)n1CC(=O)NCCC1=CCCCC1`, the “% Inhibition @ 10 uM” value was 1.91%.
For the compound `O=S(=O)(c1ccc2oc3ccc(S(=O)(=O)N4CCCCC4)cc3c2c1)N1CCCCC1`, the “% Inhibition @ 10 uM” value was -1.47%.
For `N#CC1(NC(=O)[C@H](CC2CCCCC2)N[C@@H](c2cccc(-c3ccncc3)c2)C(F)(F)F)CC1`, the “% Inhibition @ 10 uM” value was determined as 0.079%.
The figure for `O=C(Cn1nc(C(F)(F)F)cc1C1CC1)N1CCc2ccccc21` is 3.72%; for `COc1ccc(C2CC(c3ccccc3)=Nc3ccccc3S2)cc1OC` (centres unmarked) it is -5.48%.
On to `O=C(CNS(=O)(=O)c1ccc(Cl)cc1)N1CCCCC1`, for which the “% Inhibition @ 10 uM” value amounted to 10.2%.
Turning to `COc1ccc(CCNC(=O)c2nc3ncccn3n2)cc1OC`, the “% Inhibition @ 10 uM” value was determined as 0.0289%.
On to `CNC(C)Cc1c2c(cc3c1CCC3)CCC2` (centres unmarked), for which the “% Inhibition @ 10 uM” value is given as -5.79%.
Take `CC(=O)Nc1ccc(S(=O)(=O)N2CCN(c3ccc(Cl)cc3)CC2)cc1`: the “% Inhibition @ 10 uM” value is -4.76% and 5.15%.
On to `COc1ccc(/N=C2\S/C(=C3\C(=O)Nc4ccccc43)C(=O)N2c2ccc(OC)cc2)cc1`, for which the “% Inhibition @ 10 uM” value came out at 2.69%.
For `CN(C)CCCN1C(=O)C(O)=C(C(=O)c2ccc(F)cc2)C1c1ccccn1` (centres unmarked), the “% Inhibition @ 10 uM” value turned out to be 6.71%.
